Lines with a small IC50 respond at low doses; a fit beyond the top or the lowest dose is shown as a bound at that dose. AUC, from the same fit, is the share of area under the viability curve across the 256-fold dose range; it is 1 without any effect and falls as sensitivity rises. For some assays here: Any top dose called inferred was derived from the fitted curves, not read from the paper. For some assays here: Where an entry number is given, a second screen of the drug exists; the two often differ.
Experiments:
Test in all cases: Viability of human cancer cell lines after 72 h of drug (GDSC screen)
LAQ824 = compound: O=C(/C=C/c1ccc(CN(CCO)CCc2c[nH]c3ccccc23)cc1)NO [LAQ824]; settings: top dose 1.024 µM; top dose inferred
Experimental: (§1)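 Human cancer cell lines in 384-well plates, medium with 10% serum, drug for 72 h over a 256-fold dose range (nine 2-fold or five 4-fold steps up to the top dose). Adherent lines were fixed and stained with the nucleic acid dye Syto60, suspension lines read with resazurin; signal relative to control wells, capped at 0 and 100%. One two-parameter sigmoid per drug and line, fitted in a mixed model over all curves with the slope shared within a line.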

Tamoxifen = compound: CC/C(=C(\c1ccccc1)c1ccc(OCCN(C)C)cc1)c1ccccc1 [Tamoxifen]; settings: top dose 5 µM
Experimental: as §1

Masitinib = compound: Cc1ccc(NC(=O)c2ccc(CN3CCN(C)CC3)cc2)cc1Nc1nc(-c2cccnc2)cs1 [Masitinib]; settings: top dose 20 µM
Experimental: as §1

OSI-930 = compound: O=C(Nc1ccc(OC(F)(F)F)cc1)c1sccc1NCc1ccnc2ccccc12 [OSI-930]; settings: top dose 10.24 µM
Experimental: as §1

Bleomycin = compound: Cc1c(N)nc([C@H](CC(N)=O)NC[C@H](N)C(N)=O)nc1C(=O)N[C@H](C(=O)N[C@H](C)[C@@H](O)[C@H](C)C(=O)N[C@H](C(=O)NCCc1nc(-c2nc(C(=O)NCCC[S+](C)C)cs2)cs1)[C@@H](C)O)[C@@H](OC1OC(CO)C(O)C(O)C1OC1OC(CO)C(O)C(OC(N)=O)C1O)c1cnc[nH]1 [Bleomycin]
Experimental: as §1

Elesclomol = compound: CN(NC(=O)CC(=O)NN(C)C(=S)c1ccccc1)C(=S)c1ccccc1 [Elesclomol]; settings: top dose 0.2 µM; top dose inferred
Experimental: as §1

BX-912 = compound: O=C(Nc1cccc(Nc2ncc(Br)c(NCCc3cnc[nH]3)n2)c1)N1CCCC1 [BX-912]; settings: top dose 10.24 µM; top dose inferred
Experimental: as §1

VNLG/124 = compound: CCCC(=O)OCc1ccc(OC(=O)/C=C(C)/C=C/C=C(C)/C=C/C2=C(C)CCCC2(C)C)cc1 [VNLG/124]; settings: top dose 5.12 µM; top dose inferred
Experimental: as §1

NSC-87877 = compound: O=S(=O)(O)c1ccc2cc(N=Nc3cc(S(=O)(=O)O)c4cccnc4c3O)ccc2c1 [NSC-87877]; settings: top dose 16 µM; top dose inferred
Experimental: as §1

[1] = top dose 50 µM, screen: GDSC drug entry 1378, top dose inferred
[2] = top dose 64 µM, screen: GDSC drug entry 190

Row | Cell Line | AUC (LAQ824) | IC50 (LAQ824) [µM] | AUC (Tamoxifen) | IC50 (Tamoxifen) [µM] | AUC (Masitinib) | IC50 (Masitinib) [µM] | AUC (OSI-930) | IC50 (OSI-930) [µM] | AUC (Bleomycin; [1]) | IC50 (Bleomycin; [1]) [µM] | AUC (Bleomycin; [2]) | IC50 (Bleomycin; [2]) [µM] | AUC (Elesclomol) | IC50 (Elesclomol) [µM] | AUC (BX-912) | IC50 (BX-912) [µM] | AUC (VNLG/124) | IC50 (VNLG/124) [µM] | AUC (NSC-87877) | IC50 (NSC-87877) [µM]
1 | MEG-01 (chronic myeloid leukaemia, suspension) | 0.372 | 0.0291 | 0.987 | > 5 | 0.234 | 0.225 | 0.855 | 7.42 | 0.911 | > 50 | 0.351 | 1.59 | 0.977 | > 0.2 | 0.87 | 8.62 | 0.968 | > 5.12 | 0.985 | > 16
2 | LU-165 (small cell lung carcinoma, suspension) | 0.483 | 0.0572 | 0.981 | > 5 | 0.94 | > 20 | 0.983 | > 10.2 | 0.971 | > 50 | 0.833 | 48.5 | 0.988 | > 0.2 | 0.937 | > 10.2 | 0.988 | > 5.12 | 0.988 | > 16
3 | UACC-257 (melanoma, adherent) | 0.463 | 0.0494 | 0.97 | > 5 | 0.9 | > 20 | 0.982 | > 10.2 | 0.843 | 48.8 | 0.905 | > 64 | 0.577 | 0.0214 | 0.955 | > 10.2 | 0.975 | > 5.12 | 0.973 | > 16
4 | 42-MG-BA (glioma, adherent) | 0.615 | 0.136 | 0.98 | > 5 | 0.955 | > 20 | 0.973 | > 10.2 | 0.266 | 0.636 | 0.614 | 8.4 | 0.439 | 0.0084 | 0.825 | 6.69 | 0.985 | > 5.12 | 0.985 | > 16
5 | NCI-H2452 (mesothelioma, adherent) | 0.672 | 0.212 | 0.958 | > 5 | 0.984 | > 20 | 0.968 | > 10.2 | 0.497 | 3.05 | 0.973 | > 64 | 0.607 | 0.026 | 0.984 | > 10.2 | 0.981 | > 5.12 | 0.974 | > 16
6 | ME-1 (acute myeloid leukaemia, suspension) | 0.437 | 0.0426 | 0.986 | > 5 | 0.987 | > 20 | 0.974 | > 10.2 | 0.977 | > 50 | 0.701 | 15.4 | 0.902 | > 0.2 | 0.98 | > 10.2 | 0.965 | > 5.12 | 0.989 | > 16
7 | NU-DUL-1 (B-cell lymphoma, suspension) | 0.233 | 0.0132 | 0.99 | > 5 | 0.849 | 10.7 | 0.944 | > 10.2 | 0.947 | > 50 | 0.464 | 3.25 | 0.555 | 0.0171 | 0.394 | 0.349 | 0.848 | 2.74 | 0.987 | > 16
8 | HCC-827 (lung adenocarcinoma, adherent) | 0.556 | 0.0935 | 0.946 | > 5 | 0.985 | > 20 | 0.985 | > 10.2 | 0.719 | 14.5 | 0.926 | > 64 | 0.676 | 0.042 | 0.928 | > 10.2 | 0.983 | > 5.12 | 0.975 | > 16
9 | DEL (lymphoid neoplasm, suspension) | 0.345 | 0.0263 | 0.977 | > 5 | 0.539 | 1.56 | 0.888 | 7.33 | 0.813 | 20.1 | 0.194 | 0.65 | 0.955 | > 0.2 | 0.844 | 5.17 | 0.994 | > 5.12 | 0.988 | > 16
10 | NCI-SNU-1 (stomach, suspension) | 0.548 | 0.0868 | 0.979 | > 5 | 0.871 | 19.9 | 0.969 | > 10.2 | 0.912 | > 50 | 0.473 | 3.36 | 0.968 | > 0.2 | 0.818 | 6.04 | 0.97 | > 5.12 | 0.982 | > 16
11 | BICR78 (head and neck, adherent) | 0.524 | 0.075 | 0.943 | > 5 | 0.964 | > 20 | 0.979 | > 10.2 | 0.521 | 3.6 | 0.74 | 22 | 0.429 | 0.00774 | 0.96 | > 10.2 | 0.975 | > 5.12 | 0.982 | > 16
12 | CCF-STTG1 (glioma, adherent) | 0.617 | 0.134 | 0.987 | > 5 | 0.825 | 12.1 | 0.965 | > 10.2 | 0.48 | 2.76 | 0.534 | 4.94 | 0.842 | 0.142 | 0.988 | > 10.2 | 0.988 | > 5.12 | 0.938 | > 16
13 | NCI-H596 (lung adenocarcinoma, adherent) | 0.549 | 0.0907 | 0.964 | > 5 | 0.908 | > 20 | 0.982 | > 10.2 | 0.734 | 18 | 0.658 | 12.5 | 0.695 | 0.0523 | 0.943 | > 10.2 | 0.979 | > 5.12 | 0.982 | > 16
